Reference: article PMC9911399, “Two distinct binding modes provide the RNA-binding protein RbFox with extraordinary sequence specificity”
Residue numbers refer to the chain shown, from its start. The list shows a part of the results.

T1: RBFOX1 RRM (Homo sapiens, UniProt Q9NWB1 109-208)
T1 sequence: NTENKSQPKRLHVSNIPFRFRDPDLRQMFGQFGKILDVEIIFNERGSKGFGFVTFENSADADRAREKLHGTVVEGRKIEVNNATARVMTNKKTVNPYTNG

B1: AUUCGAU (DNA:RNA)
RNA: GGGAGACCGGAAUUCAGAUUGUCCAUUCGAUUUAAAUCCCGUCGUAGCCACCA
DNA 1: CAATCTGAATTCCGGTCTCCC
DNA 2: TGGTGGCTACGACGGGATT
B2: AGGCCAC (DNA:RNA)
RNA: B1 RNA with U26G, U27G, G29C, U31C
DNA 1: CAATCTGAATTCCGGTCTCCC
DNA 2: TGGTGGCTACGACGGGATT
B3: GAAGGGC (DNA:RNA)
RNA: B1 RNA with A25G, U26A, U27A, C28G, A30G, U31C
DNA 1: CAATCTGAATTCCGGTCTCCC
DNA 2: TGGTGGCTACGACGGGATT
B4: AAGAGAA (DNA:RNA)
RNA: B1 RNA with U26A, U27G, C28A, U31A
DNA 1: CAATCTGAATTCCGGTCTCCC
DNA 2: TGGTGGCTACGACGGGATT
B5: CAAGAAA (DNA:RNA)
RNA: B1 RNA with A25C, U26A, U27A, C28G, G29A, U31A
DNA 1: CAATCTGAATTCCGGTCTCCC
DNA 2: TGGTGGCTACGACGGGATT
B6: GGGAAAG (DNA:RNA)
RNA: B1 RNA with A25G, U26G, U27G, C28A, G29A, U31G
DNA 1: CAATCTGAATTCCGGTCTCCC
DNA 2: TGGTGGCTACGACGGGATT
B7: CGCCUCC (DNA:RNA)
RNA: B1 RNA with A25C, U26G, U27C, G29U, A30C, U31C
DNA 1: CAATCTGAATTCCGGTCTCCC
DNA 2: TGGTGGCTACGACGGGATT
B8: ACGAACC (DNA:RNA)
RNA: B1 RNA with U26C, U27G, C28A, G29A, A30C, U31C
DNA 1: CAATCTGAATTCCGGTCTCCC
DNA 2: TGGTGGCTACGACGGGATT
B9: UGAUCCC (DNA:RNA)
RNA: GGGAGACCGGAAUUCAGAUUGUCCUGAUCCCUUAAAUCCCGUCGUAGCCACCA
DNA 1: CAATCTGAATTCCGGTCTCCC
DNA 2: TGGTGGCTACGACGGGATT
B10: UUACUGU (DNA:RNA)
RNA: B1 RNA with A25U, U27A, G29U, A30G
DNA 1: CAATCTGAATTCCGGTCTCCC
DNA 2: TGGTGGCTACGACGGGATT
B11: AGCUCGG (DNA:RNA)
RNA: B9 RNA with U25A, A27C, C30G, C31G
DNA 1: CAATCTGAATTCCGGTCTCCC
DNA 2: TGGTGGCTACGACGGGATT
B12: UCCAGCA (DNA:RNA)
RNA: B9 RNA with G26C, A27C, U28A, C29G, C31A
DNA 1: CAATCTGAATTCCGGTCTCCC
DNA 2: TGGTGGCTACGACGGGATT
B13: AUUAGGG (DNA:RNA)
RNA: B1 RNA with C28A, A30G, U31G
DNA 1: CAATCTGAATTCCGGTCTCCC
DNA 2: TGGTGGCTACGACGGGATT
B14: AGUUGCU (DNA:RNA)
RNA: B1 RNA with U26G, C28U, A30C
DNA 1: CAATCTGAATTCCGGTCTCCC
DNA 2: TGGTGGCTACGACGGGATT
B15: CAGAGCC (DNA:RNA)
RNA: B9 RNA with U25C, G26A, A27G, U28A, C29G
DNA 1: CAATCTGAATTCCGGTCTCCC
DNA 2: TGGTGGCTACGACGGGATT
B16: CGUCAAA (DNA:RNA)
RNA: B1 RNA with A25C, U26G, G29A, U31A
DNA 1: CAATCTGAATTCCGGTCTCCC
DNA 2: TGGTGGCTACGACGGGATT
B17: UGGUGUU (DNA:RNA)
RNA: B9 RNA with A27G, C29G, C30U, C31U
DNA 1: CAATCTGAATTCCGGTCTCCC
DNA 2: TGGTGGCTACGACGGGATT
B18: CGCUAUC (DNA:RNA)
RNA: B9 RNA with U25C, A27C, C29A, C30U
DNA 1: CAATCTGAATTCCGGTCTCCC
DNA 2: TGGTGGCTACGACGGGATT
B19: UAUUCGG (DNA:RNA)
RNA: B9 RNA with G26A, A27U, C30G, C31G
DNA 1: CAATCTGAATTCCGGTCTCCC
DNA 2: TGGTGGCTACGACGGGATT
B20: UCCGGGG (DNA:RNA)
RNA: B1 RNA with A25U, U26C, U27C, C28G, A30G, U31G
DNA 1: CAATCTGAATTCCGGTCTCCC
DNA 2: TGGTGGCTACGACGGGATT
B21: ACGCGCG (DNA:RNA)
RNA: B1 RNA with U26C, U27G, A30C, U31G
DNA 1: CAATCTGAATTCCGGTCTCCC
DNA 2: TGGTGGCTACGACGGGATT
B22: UUAGGGA (DNA:RNA)
RNA: B1 RNA with A25U, U27A, C28G, A30G, U31A
DNA 1: CAATCTGAATTCCGGTCTCCC
DNA 2: TGGTGGCTACGACGGGATT
B23: GAUAAAG (DNA:RNA)
RNA: B1 RNA with A25G, U26A, C28A, G29A, U31G
DNA 1: CAATCTGAATTCCGGTCTCCC
DNA 2: TGGTGGCTACGACGGGATT
B24: CCGCUAU (DNA:RNA)
RNA: B1 RNA with A25C, U26C, U27G, G29U
DNA 1: CAATCTGAATTCCGGTCTCCC
DNA 2: TGGTGGCTACGACGGGATT
B25: CGGCUGC (DNA:RNA)
RNA: B9 RNA with U25C, A27G, U28C, C29U, C30G
DNA 1: CAATCTGAATTCCGGTCTCCC
DNA 2: TGGTGGCTACGACGGGATT
B26: CUUAAUA (DNA:RNA)
RNA: B1 RNA with A25C, C28A, G29A, A30U, U31A
DNA 1: CAATCTGAATTCCGGTCTCCC
DNA 2: TGGTGGCTACGACGGGATT
B27: AAGAGCC (DNA:RNA)
RNA: B1 RNA with U26A, U27G, C28A, A30C, U31C
DNA 1: CAATCTGAATTCCGGTCTCCC
DNA 2: TGGTGGCTACGACGGGATT
B28: AUGCCAA (DNA:RNA)
RNA: B1 RNA with U27G, G29C, U31A
DNA 1: CAATCTGAATTCCGGTCTCCC
DNA 2: TGGTGGCTACGACGGGATT
B29: GCAGCAA (DNA:RNA)
RNA: B9 RNA with U25G, G26C, U28G, C30A, C31A
DNA 1: CAATCTGAATTCCGGTCTCCC
DNA 2: TGGTGGCTACGACGGGATT
B30: AUCGCGC (DNA:RNA)
RNA: B1 RNA with U27C, C28G, G29C, A30G, U31C
DNA 1: CAATCTGAATTCCGGTCTCCC
DNA 2: TGGTGGCTACGACGGGATT
B31: GUGUAAU (DNA:RNA)
RNA: B1 RNA with A25G, U27G, C28U, G29A
DNA 1: CAATCTGAATTCCGGTCTCCC
DNA 2: TGGTGGCTACGACGGGATT

Biological target: T1, RBFOX1 RRM
Assay: EMSA; HiTS-Eq, 1 nM pool, 10 min; buffer printed only for the single-RNA assays: 10 mM Tris pH 7.5, 150 mM NaCl, 3.4 mM EDTA, 0.001% NP-40, 30 C
Settings: tags: His6 N-terminal (pET28a); label: 5' 32P
How it was run: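 Purified RbFox RRM (wild type or mutant) was equilibrated for 10 min in 50 µL with 1 nM of a 5′-radiolabelled pool of RNA with 7 randomized nucleotides, its flanks annealed to DNA oligonucleotides, across increasing protein concentrations. Free RNA was separated by 8% native PAGE, excised, reverse-transcribed, PCR-barcoded and sequenced on an Illumina HiSeq 2500. Relative association constants came from read-count changes of each variant against the control reaction, normalised to the cognate motif.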

Row | Binder | binding signal
1 | B1 | 0.0114 KA relative to UGCAUGU
2 | B2 | 0.00764 KA relative to UGCAUGU
3 | B3 | 0.00535 KA relative to UGCAUGU
4 | B4 | 0.00394 KA relative to UGCAUGU
5 | B5 | 0.000816 KA relative to UGCAUGU
6 | B6 | 0.0253 KA relative to UGCAUGU
7 | B7 | 0.0137 KA relative to UGCAUGU
8 | B8 | 0.00241 KA relative to UGCAUGU
9 | B9 | 0.00686 KA relative to UGCAUGU
10 | B10 | 0.0141 KA relative to UGCAUGU
11 | B11 | 0.0167 KA relative to UGCAUGU
12 | B12 | 0.0101 KA relative to UGCAUGU
13 | B13 | 0.00624 KA relative to UGCAUGU
14 | B14 | 0.0135 KA relative to UGCAUGU
15 | B15 | 0.00719 KA relative to UGCAUGU
16 | B16 | 0.00128 KA relative to UGCAUGU

Row | Binder | binding signal
17 | B17 | 0.0267 KA relative to UGCAUGU
18 | B18 | 0.00548 KA relative to UGCAUGU
19 | B19 | 0.0135 KA relative to UGCAUGU
20 | B20 | 0.00368 KA relative to UGCAUGU
21 | B21 | 0.0165 KA relative to UGCAUGU
22 | B22 | 0.000676 KA relative to UGCAUGU
23 | B23 | 0.00983 KA relative to UGCAUGU
24 | B24 | 0.00807 KA relative to UGCAUGU
25 | B25 | 0.018 KA relative to UGCAUGU
26 | B26 | 0.0012 KA relative to UGCAUGU
27 | B27 | 0.00759 KA relative to UGCAUGU
28 | B28 | 0.00891 KA relative to UGCAUGU
29 | B29 | 0.0107 KA relative to UGCAUGU
30 | B30 | 0.0102 KA relative to UGCAUGU
31 | B31 | 0.00791 KA relative to UGCAUGU
